# Experimental data taken from the supplement of paper PMC10037445.
# The full ranking holds about 2,900 compounds; the median of “NF-kB SEAP reporter activity, fold change vs agonist alone” is about 0.99, and the highest 2% start at about 2.6. The list shows a part of the results.
# Key:
# [1] = test system: RAW-Dual; assay: NF-kB SEAP reporter activity, fold change vs agonist alone; cytotoxicity flag (confluency mask): not cytotoxic; higher = enhanced NF-kB activity
# Summary of the method: (§1)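 RAW-Dual macrophages (50,000 cells/well in DMEM, 384-well plates) received 50 nL of library stock by pin tool, then a PRR agonist 1 h later, and were kept at 37 °C, 5% CO2. After 20 hours, supernatant was read for IRF by QuantiLuc luminescence and for NF-κB by QuantiBlue absorbance at 620 nm. Reporter activity is fold change over agonist-alone wells. Cytotoxic wells had IncuCyte confluency below 70% of agonist controls in both mask sets.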
# [2] = test system: RAW-Dual; assay: NF-kB SEAP reporter activity, fold change vs agonist alone; higher = enhanced NF-kB activity; conditions: library stock concentration (final ~1000-fold dilution): 10 mM
# Summary of the method: as §1
# [3] = test system: RAW-Dual; assay: NF-kB SEAP reporter activity, fold change vs agonist alone; cytotoxicity flag (confluency mask): cytotoxic (confluency <70% of control); higher = enhanced NF-kB activity
# Summary of the method: as §1
# [4] = agonist: ODN 1826 (TLR9) 0.5 ug/mL
# [5] = agonist: Pam2CSK4 (TLR2/6) 0.1 ug/mL
# [6] = agonist: Pam3CSK4 (TLR2/1) 0.1 ug/mL
# [7] = cytotoxicity flag (confluency mask): not cytotoxic, agonist: Imiquimod (TLR7) […]
# [8] = cytotoxicity flag (confluency mask): not cytotoxic, agonist: MPLA (TLR4) […]
# [9] = cytotoxicity flag (confluency mask): cytotoxic (confluency <70% of control), agonist: Imiquimod (TLR7) […]
# [10] = cytotoxicity flag (confluency mask): cytotoxic (confluency <70% of control), agonist: MPLA (TLR4) […]
smiles,measurement,setting,value
CN(Cc1cnc2nc(N)nc(N)c2n1)c1ccc(C(=O)NC(CCC(=O)O)C(=O)O)cc1 (stereo unspecified) (library stock concentration (final ~1000-fold dilution): 10 mM water),NF-kB SEAP reporter activity,[1]; agonist: LPS (TLR4) 0.1 ug/mL,1.52
same,NF-kB SEAP reporter activity,[1]; [4],0.931
same,NF-kB SEAP reporter activity,[1]; [5],0.514
same,NF-kB SEAP reporter activity,[1]; [6],0.726
CCOC(=O)c1c2c3c(cccc3[nH]c1=O)C(=O)c1ccccc1-2,NF-kB SEAP reporter activity,[2]; [7],0.906
same,NF-kB SEAP reporter activity,[2]; [8],1.09
CCOC(=O)c1c2c3c(cccc3[nH]c1=O)C(=O)c1ccccc1-2 (library stock concentration (final ~1000-fold dilution): 10 mM),NF-kB SEAP reporter activity,[1]; agonist: LPS (TLR4) 0.1 ug/mL,1.1
same,NF-kB SEAP reporter activity,[1]; [4],0.924
same,NF-kB SEAP reporter activity,[1]; [5],0.817
same,NF-kB SEAP reporter activity,[1]; [6],0.957
CN(Cc1cc(Br)cc(Br)c1N)C1CCCCC1 (library stock concentration (final ~1000-fold dilution): 10 mM),NF-kB SEAP reporter activity,[3]; agonist: LPS (TLR4) 0.1 ug/mL,1.04
same,NF-kB SEAP reporter activity,[3]; [4],0.386
same,NF-kB SEAP reporter activity,[3]; [5],0.257
same,NF-kB SEAP reporter activity,[3]; [6],0.423
CN(Cc1cc(Br)cc(Br)c1N)C1CCCCC1,NF-kB SEAP reporter activity,[2]; [9],1.15
same,NF-kB SEAP reporter activity,[2]; [10],1.43
Nc1nc(N)c2nc(-c3cccc(O)c3)c(-c3cccc(O)c3)nc2n1,NF-kB SEAP reporter activity,[2]; [7],0.901
same,NF-kB SEAP reporter activity,[2]; [8],0.951
Nc1nc(N)c2nc(-c3cccc(O)c3)c(-c3cccc(O)c3)nc2n1 (library stock concentration (final ~1000-fold dilution): 10 mM),NF-kB SEAP reporter activity,[1]; agonist: LPS (TLR4) 0.1 ug/mL,1.23
same,NF-kB SEAP reporter activity,[1]; [4],1.03
same,NF-kB SEAP reporter activity,[1]; [5],1.02
same,NF-kB SEAP reporter activity,[1]; [6],1.08
Cn1cnc2c(F)c(Nc3ccc(Br)cc3Cl)c(C(=O)NOCCO)cc21 (library stock concentration (final ~1000-fold dilution): 10 mM),NF-kB SEAP reporter activity,[1]; agonist: LPS (TLR4) 0.1 ug/mL,0.243
same,NF-kB SEAP reporter activity,[1]; [4],0.322
same,NF-kB SEAP reporter activity,[1]; [5],0.0758
same,NF-kB SEAP reporter activity,[1]; [6],0.286
Cn1cnc2c(F)c(Nc3ccc(Br)cc3Cl)c(C(=O)NOCCO)cc21,NF-kB SEAP reporter activity,[2]; [7],0.199
same,NF-kB SEAP reporter activity,[2]; [8],0.216
Cl.OCCNCc1ccc(OCc2ccc(F)cc2)c(OCc2ccc(F)cc2)c1,NF-kB SEAP reporter activity,[2]; [9],1.41
same,NF-kB SEAP reporter activity,[2]; [10],1.5
Cl.OCCNCc1ccc(OCc2ccc(F)cc2)c(OCc2ccc(F)cc2)c1 (library stock concentration (final ~1000-fold dilution): 10 mM),NF-kB SEAP reporter activity,[3]; agonist: LPS (TLR4) 0.1 ug/mL,0.702
same,NF-kB SEAP reporter activity,[3]; [4],0.629
same,NF-kB SEAP reporter activity,[3]; [5],0.301
same,NF-kB SEAP reporter activity,[3]; [6],0.354
NC(=O)c1ccccc1 (library stock concentration (final ~1000-fold dilution): 10 mM),NF-kB SEAP reporter activity,[1]; agonist: LPS (TLR4) 0.1 ug/mL,1.11
same,NF-kB SEAP reporter activity,[1]; [4],1.01
same,NF-kB SEAP reporter activity,[1]; [5],1.04
same,NF-kB SEAP reporter activity,[1]; [6],1.1
NC(=O)c1ccccc1,NF-kB SEAP reporter activity,[2]; [8],1.29
Cl.Cl.OCCN1CCN(CC/C=C2/c3ccccc3Sc3ccc(C(F)(F)F)cc32)CC1 (library stock concentration (final ~1000-fold dilution): 10 mM),NF-kB SEAP reporter activity,[3]; agonist: LPS (TLR4) 0.1 ug/mL,0.443
same,NF-kB SEAP reporter activity,[3]; [4],0.412
same,NF-kB SEAP reporter activity,[3]; [5],0.431
same,NF-kB SEAP reporter activity,[3]; [6],0.63
Cl.Cl.OCCN1CCN(CC/C=C2/c3ccccc3Sc3ccc(C(F)(F)F)cc32)CC1,NF-kB SEAP reporter activity,[2]; [9],1.58
same,NF-kB SEAP reporter activity,[2]; [10],0.876
COc1c(Cl)cc2c([nH]c3cnccc32)c1NC(=O)c1cccnc1C (library stock concentration (final ~1000-fold dilution): 10 mM),NF-kB SEAP reporter activity,[1]; agonist: LPS (TLR4) 0.1 ug/mL,0.498
same,NF-kB SEAP reporter activity,[1]; [4],0.382
same,NF-kB SEAP reporter activity,[1]; [5],0.219
same,NF-kB SEAP reporter activity,[1]; [6],0.33
COc1c(Cl)cc2c([nH]c3cnccc32)c1NC(=O)c1cccnc1C,NF-kB SEAP reporter activity,[2]; [7],0.467
same,NF-kB SEAP reporter activity,[2]; [8],0.562
